Results reported in PubChem BioAssay AID1345083 (National Center for Advancing Translational Sciences (NCATS), 2018).
In all, about 94,000 compounds went through this assay and about 6,200 (6.6%) were called active. This list was built around the results that the source calls inconclusive (neither active nor inactive); the mix of calls is not that of the screen. The call rests on the fitted dose curve; in most records, active means well fitted inhibition curve with a large enough effect; inconclusive means small, poorly fitted or top-dose-only effect; inactive means flat fitted curve, though single readings scatter. A potency beside an inconclusive call is a rough fit, not a confirmed value.

test: Cytotoxic Profiling in HEK 293 Cell Line of Diverse Libraries Using Quantitative High-Throughput Screening; conditions: HEK 293 viability, ATP luminescence (CellTiter-Glo), 48-72 h; series mostly up to 115 µM; further: nearly all actives have a fitted effect of over 60% in size
How it was run: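 Cells seeded first (HEK 293, 250 cells/well), then compound added by pintool. Incubation ran 48 or 72 hr at 37 degree Celsius. CellTiter-Glo was added and luminescence imaged after 10 min at room temperature.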
Potency means the concentration at half of the fitted maximal effect; tags describe the fitted curve by direction and shape.

| SMILES | Potency |
| --- | --- |
| NC(=O)[C@@H](Cc1ccccc1)NC(=O)[C@@H]1[C@@H](NC(=O)Nc2ccc(F)cc2F)CCN1C(=O)c1cnccn1 | inconclusive: 28.2 µM [inhibitor, full curve] |
| CCOc1ccc(NC(=O)Cn2nc3c(cc2=O)CCCCC3)cc1 | inconclusive: 89.1 µM [inhibitor, single point] |
| CC(C)(C(=O)N1Cc2cnn(Cc3ccc(F)cc3)c2C1)c1ccccc1 | inconclusive: 44.7 µM [inhibitor, partial curve, poor fit] |
| COc1ccc(CC(=O)N2CCC(C(=O)N3CCC(N4Cc5ccccc5C4=O)CC3)CC2)cc1 | inactive |
| COC[C@@H]1CN(Cc2cc(OC)cc(OC)c2)C[C@H]1C(=O)N(C)C | inactive |
| COCCn1cnc2ccc(-c3ccccc3Oc3ccccc3)nc2c1=O | inconclusive: 50.1 µM [inhibitor, full curve] |
| COc1ccc(-n2nc(C)c([C@@H]3C=C[C@@H](NCc4cccc(Cl)c4)C3)c2C)cc1 | active: 28.2 µM |
| COc1ccc(-c2ccc3ncc(Nc4cccc(O)c4)n3n2)cc1OC | active: 63.1 µM |
| CCOC(=O)c1sc(NC(=O)Cn2nc3c(cc2=O)CCCC3)nc1C | inactive |
| COc1ccc(-c2cc(N3CCCN(C(=O)c4cc(OC)cc(OC)c4)CC3)n[nH]2)cc1 | inconclusive: 56.2 µM [inhibitor, partial curve, poor fit] |
| CS(=O)(=O)N1CCC(C2CCN(C(=O)c3cc(Cl)ccc3F)C2)CC1 (stereo not drawn) | inactive |
| Cc1nn(-c2ccccc2)c2c1C(C1CC1)N(C1CN(C(=O)c3ccc(C(F)(F)F)cc3)C1)C2=O (stereo not drawn) | inconclusive: 35.5 µM [inhibitor, full curve, poor fit] |
| CCC(C)NC(=O)C1CC(c2ccccc2)CN(C(=O)NCc2ccccc2)C1 (stereo not drawn) | inconclusive: 39.8 µM [inhibitor, partial curve] |
| O=C1NC(=NC2CCCC2)C2(CCCN(CC3CC3)C2)N1c1cccnc1 (stereo not drawn) | inactive |
| COc1ccccc1Nc1ccnc(N2CCC(NC(=O)c3ccccc3F)CC2)n1 | inconclusive: 89.1 µM [inhibitor, single point] |
| CN(C)CCN1CCCN(C(=O)CCc2ccccc2)c2ccccc21 | inconclusive: 89.1 µM [inhibitor, single point] |
| COc1ccc(CN2CC(Oc3ccc(F)c(C)c3)C2)cc1 | active: 89.1 µM |
| O=C(c1ccc2c(c1)OCO2)N1CCC2(CC1)NC(=O)N(c1ccccc1)N2 | inconclusive: 44.7 µM [inhibitor, partial curve, poor fit] |
| CCOC(=O)C1CCCN(C(=O)C2CCc3nnc(-c4cccc(C(F)(F)F)c4)n32)C1 (stereo not drawn) | inactive |
| Cc1cc(C(=O)N(CCC(=O)NCCC(C)C)CCC(C)C)c(C)o1 | active: 31.6 µM |
| CCc1ccc(OCC(=O)c2ccc3c(c2)N(CC(=O)NCCCOC)C(=O)CO3)cc1 | inconclusive: 79.4 µM [inhibitor, single point] |
| Cc1nc2cccnc2n1CC1CCCN(S(=O)(=O)c2ccc(C(C)C)cc2)C1 (stereo not drawn) | inconclusive: 35.5 µM [inhibitor, partial curve, poor fit] |

| SMILES | Potency |
| --- | --- |
| Cc1ccc(-c2nnc([C@H]3CCN(C(=O)CCC(=O)O)C3)o2)cc1 | inactive |
| O=C(NCc1ccc(Cl)cc1)c1cc2cccnn2n1 | inconclusive: 79.4 µM [inhibitor, partial curve, poor fit] |
| O=C1CCN(S(=O)(=O)c2ccccc2)CCCN(C(=O)CN2CCOCC2)CCN1 | inactive |
| CSc1ccc(-c2ccc3c(c2)C(=O)N2CCN(C(=O)CC(C)(C)C)C[C@@H]2C(=O)N3)cc1 | active: 35.5 µM |
| O=C(Nc1cccc(Cl)c1)N1CCC(Oc2ncccc2C(=O)N2CCCCC2)C1 (stereo not drawn) | inactive |
| COC(=O)N1CCN(c2nccc(Nc3ccccc3OC)n2)CC1 | inconclusive: 89.1 µM [inhibitor, partial curve, poor fit] |
| COCCN(CCOC)C(=O)C(C)[C@@H]1CC[C@@]2(C)CC[C@H](NC(C)=O)[C@@H](C)[C@@H]2[C@H]1O (stereo partly drawn) | inactive |
| COCCN1Cc2ccc(NCc3ccccc3)nc2C(C)(C(=O)NC2CCOCC2)C1 (stereo not drawn) | inconclusive: 100 µM [inhibitor, partial curve, poor fit] |
| C[S+](=O)([O-])c1ccc(-c2cnc3n[nH]c(-c4ccccc4)c3n2)cc1 | inconclusive: 100 µM [inhibitor, partial curve, poor fit] |
| O=C(NC[C@H]1O[C@H](Cc2cc(COc3ccccc3)on2)CC[C@@H]1O)c1ccc2c(c1)OCO2 | inconclusive: 79.4 µM [inhibitor, partial curve] |
| COc1ccc(CCC(=O)NCCC2CCN(C(=O)Nc3cc(F)ccc3F)CC2)cc1 | inconclusive: 89.1 µM [inhibitor, single point] |
| O=C(NCCNC(=O)c1ccccc1Cl)c1ccc(-c2cccc(C(F)(F)F)c2)cc1 | inactive |
| COCCN1C(=O)CC[C@]2(C(=O)NCc3ccccc3C)CCCC[C@@H]12 | inactive |
| COc1ccc(-c2cc(C(=O)N3C[C@@H](Oc4ccccc4)C[C@H]3C(=O)NC3CC3)[nH]n2)cc1 | inactive |
| Cc1cccc(-c2cccc(CN3CCC(NC(=O)Cc4cccc(Cl)c4)CC3)c2)c1 | active: 20 µM |
| Cc1cc(C)n(CCC(=O)N2Cc3ccccc3OC3(CCN(C(C)C)CC3)C2)n1 | inactive |
| COc1cccc(N2CCN(Cc3cn(-c4ccccc4)nn3)CC2(C)C)c1 | inconclusive: 89.1 µM [inhibitor, partial curve, poor fit] |
| COc1cccc(-c2cnc3n[nH]c(-c4ccc5c(c4)OCO5)c3n2)c1 | inconclusive: 50.1 µM [inhibitor, full curve] |
| O=C(Cc1ccccn1)N1CCCC(C(=O)N2CCC(N3Cc4cccn4C3=O)CC2)C1 (stereo not drawn) | inactive |
| Cc1ccc(CN2CCCCCCNC(=O)[C@@H]3CCC[C@@H]32)o1 | inconclusive: 50.1 µM [inhibitor, partial curve, poor fit] |
| COc1ccc2[nH]cc(CCNC(=O)CCC3CCN(C(=O)c4ccccc4)CC3)c2c1 | inconclusive: 89.1 µM [inhibitor, single point] |
